Screen size: about 46,000 compounds; about 60 (0.1%) were called active. About 3% were inconclusive and are not listed. Calls come from the whole dose curve; as a rule, active = well fitted inhibition curve with a large enough effect; inconclusive = small, poorly fitted or top-dose-only effect; inactive = no such curve, though single readings can be large or run the other way. Some of the results follow.

The nature of the assay: Primary qHTS assay for Inhibitors of ovarian cancer metastasis using an organotypic tumor microenvironment (TME) model.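 For activity change, negative = inhibition: plate controls were DMSO wells for no effect and tomatine positive control wells for full effect.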 Note: nearly all actives have a fitted effect of over 65% in size. The following applies: SKOV3ip1-GFP adhesion/invasion on 3D omental model, fluorescence; series mostly up to 45.8 µM; activity change, negative = inhibition: at the top concentration. A digest of the protocol:
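A 3D layer of primary human omental fibroblasts, mesothelial cells, fibronectin and collagen I, grown 48 hr, received SKOV3ip1-GFP cells in serum-free medium plus compounds at 0.36-46 umol/L. After 2 hr RT and 16 hr 37 C, fixed adherent GFP cells were counted; normalized to DMSO and tomatine.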
Take `CC(=O)c1ccc(NC(=O)c2cc(C)nn2-c2ccccc2)cc1`: the compound was called inactive.

Take `COCCN(CCOC)S(=O)(=O)c1ccc(C(=O)Nc2sc3c(c2C(=O)OC)CCN(C)C3)cc1`: the “activity change, negative = inhibition” value was inactive: -9.92%.

As for `CCOC(=O)c1c(NC(=O)Cc2coc3cc(C)cc(C)c23)sc2c1CCC2`, the “activity change, negative = inhibition” value was inactive: 2.02%.

For `Cc1ccc(-n2c(/C=C/c3c(C)n(C)c4ccccc34)nc3ccccc3c2=O)cc1`, the “activity change, negative = inhibition” value was inactive: 5%.

As for `Cc1ccc(C)c(NS(=O)(=O)c2cc3c(cc2C)n(C)c(=O)c(=O)n3C)c1`, the “activity change, negative = inhibition” value is inactive: 6.79%.

With `CCN(CC)S(=O)(=O)c1cccc(C(=O)Nc2ccccc2C(=O)Nc2ccc(Cl)cc2)c1`, the “activity change, negative = inhibition” value was inactive: 2.52%.

As to `Cc1ccc(S(=O)(=O)N2CCC(N3CCN(Cc4ccccc4)C(=O)C3=O)CC2)cc1C`, the compound was classed as inactive.

With `CCCN1CCN(CCCNC(=O)c2cc3c(=O)n(CC)c4ccccc4c3s2)CC1`, the “activity change, negative = inhibition” value is inactive: -15.3%.

Consider `Cc1cccc(-n2c(C)cc(C(=O)C(=O)Nc3ccccc3F)c2C)c1C`, for which the “activity change, negative = inhibition” value is inactive: 5.24%.

As to `O=c1[nH]c(SCc2c(F)cccc2Cl)nc2c1CCC2`, the “activity change, negative = inhibition” value is inactive: -2.45%.

Consider `CN(C)S(=O)(=O)N(CC(=O)NCCSCc1c(F)cccc1Cl)c1ccccc1`, for which the compound was classed as inactive.

Turning to `CCOC(=O)c1ccccc1NC(=O)c1sc2nc3n(c(=O)c2c1C)CCCCC3`, the “activity change, negative = inhibition” value is inactive: -1.94%.

`COC(=O)c1c(NC(C)=O)c2c3c(sc2n1Cc1cc(C)ccc1C)CCCC3`: the “activity change, negative = inhibition” value is inactive: -5.49%.

In the case of `Cc1ccc(NC(=O)c2cc(S(=O)(=O)N3CCC4(CC3)OCCO4)ccc2F)cc1Cl`, the compound was classed as inactive.

Take `CCOc1cccc(C(=O)Nc2ccc(-c3nc4ncccc4o3)cc2C)c1`: the “activity change, negative = inhibition” value was inactive: -13.9%.

`Clc1ccc2c(N3CCN(CCCN4CCN(c5ccnc6cc(Cl)ccc56)CC4)CC3)ccnc2c1`: the “activity change, negative = inhibition” value was inactive: -4.02% [at 23.2 µM].

As to `COc1cccc(NC(=O)c2cccc3c(=O)c4c([nH]c23)CCCC4)c1`, the “activity change, negative = inhibition” value is inactive: 1.97%.

Consider `CCOc1ccc(-c2cccc(NS(=O)(=O)c3ccc(F)cc3F)c2)nn1`, for which the “activity change, negative = inhibition” value is inactive: -6.85%.

Turning to `COc1ccc(-c2noc(CNC(=O)c3ccccc3Br)n2)cc1`, the outcome was inactive.

With `COc1ccc(C(=O)c2oc3ccccc3c2NC(=O)c2cc(=O)c3ccc(C)cc3o2)cc1Cl`, the “activity change, negative = inhibition” value is inactive: -2.41%.

With `Cc1cccc(C(=O)Nc2nnc(S(=O)(=O)N(C)Cc3ccccc3)s2)c1`, the “activity change, negative = inhibition” value was inactive: 20.2%.

Take `Cc1ccc(S(=O)(=O)CC(=O)Nc2nc3c(C)cc(C)cc3s2)cc1`: the outcome was inactive.

On to `O=S(=O)(c1cccc(Cl)c1)c1nnn2c1nc(NCc1ccc3c(c1)OCO3)c1sccc12`, for which the “activity change, negative = inhibition” value was inactive: -3.22%.

With `COc1ccc(-c2nc3c(c(SCC(=O)N4CCCCC4)n2)Cc2cc(C)ccc2O3)cc1`, the call was inactive.

Take `Cc1ccc(S(=O)(=O)NCC(c2ccco2)N2CCOCC2)cc1` (stereo not drawn): the “activity change, negative = inhibition” value was inactive: 1.36%.

Consider `CCOc1ccc(OCC)c(NC(=O)c2cc(S(=O)(=O)N3CCc4ccccc43)cn2C)c1`, for which the compound was called inactive.

Take `CC(=O)c1c(C)c2cnc(Nc3ccc(N4CCNCC4)cn3)nc2n(C2CCCC2)c1=O`: the “activity change, negative = inhibition” value was inactive: 17.6%.

Take `CCOc1ccc2ncc3c(-c4ccc(C)cc4)nn(-c4cccc(F)c4)c3c2c1`: the “activity change, negative = inhibition” value was inactive: 129%.

For `CCN1C[C@H](C)n2c(c(O)c3c(=O)n(Cc4ccc(F)c(Cl)c4)nc(C(=O)NC)c32)C1=O`, the “activity change, negative = inhibition” value was inactive: 7.67%.

For `Cc1ccc(C)c(N2CCN(C(=O)Cn3cnc4onc(-c5ccc(F)cc5)c4c3=O)CC2)c1`, the “activity change, negative = inhibition” value is inactive: -5.85%.

As to `CC(=O)c1ccc(N2CCN(S(=O)(=O)c3cc4[nH]c(=O)c(=O)[nH]c4cc3C)CC2)cc1`, the “activity change, negative = inhibition” value was inactive: 1.28%.

Take `COc1ccccc1CNC(=O)C(=O)NCC(c1cccs1)S(=O)(=O)c1ccccc1` (stereo not drawn): the “activity change, negative = inhibition” value was inactive: 1.57%.

In the case of `CCc1nnc(NC(=O)c2cc(=O)c3cc(C)ccc3o2)s1`, the “activity change, negative = inhibition” value was inactive: -4.34%.

In the case of `CC(=O)Nc1ccc(/C=C/c2noc(-c3ccccc3O)n2)cc1`, the compound was classed as inactive.

For the compound `CCOC(=O)CSc1nc(-c2ccc(OCC)cc2)cc(C(F)(F)F)c1C#N`, the “activity change, negative = inhibition” value was inactive: 2.86%.

With `Cc1ccc2oc(=O)c3cc(C(=O)NCCCOC(C)C)sc3c2c1`, the compound was called inactive.

For `COc1cccc(NC(=O)C(Cc2ccccc2)N2Cc3ccccc3C2=O)c1` (stereo not drawn), the “activity change, negative = inhibition” value is inactive: -4.93%.

For the compound `COc1ccc(-n2nnnc2C2CCN(S(=O)(=O)c3cccc(C(F)(F)F)c3)CC2)cc1`, the call was inactive.

Regarding `Cc1ccc(NC(=O)CCCc2nc(-c3ccco3)no2)cc1Cl`, the compound was called inactive.

Regarding `COc1ccc(-n2c(SCC(=O)NCc3ccc(Cl)cc3)nc3ccsc3c2=O)cc1`, the compound was called inactive.

On to `COc1cccc(-n2c(=O)c3cc(OC)c(OC)cc3n(CC(=O)Nc3ccc(F)cc3)c2=O)c1`, for which the “activity change, negative = inhibition” value is inactive: 1.07%.

With `CC(C)CCOc1ccc(C(=O)NCC2OCCc3ccccc32)cc1` (stereo not drawn), the “activity change, negative = inhibition” value is inactive: 0.796%.

As for `COc1ccc(-c2noc(CCC(=O)N(C)c3cc(Cl)ccc3OC)n2)cc1`, the “activity change, negative = inhibition” value was inactive: 5.14%.

Take `COc1ccc(NS(=O)(=O)c2ccc(N3CCCCS3(=O)=O)cc2)cc1Cl`: the “activity change, negative = inhibition” value was inactive: 11%.

For the compound `CCOc1ccc(C(=O)N(Cc2ccc(C(C)C)cc2)Cc2ccco2)cc1`, the compound was called inactive.

As for `CCOc1ccc(Nc2ncnc3c2c(-c2ccccc2)cn3-c2cccc(C)c2)cc1`, the “activity change, negative = inhibition” value was inactive: -7.13%.

In the case of `Clc1ccc(-c2nnn3c2nc(NC2CCCCC2)c2ccccc23)cc1`, the outcome was inactive.

`CCCc1cnc2c(c1SCC(=O)Nc1ccccc1OCC)c(=O)n(C)c(=O)n2C`: the “activity change, negative = inhibition” value was inactive: -1.98%.

The values above are taken from PubChem BioAssay AID1963576 (National Center for Advancing Translational Sciences (NCATS), 2024).
